Laboratory results published in the supplement of paper PMC6531468.
This is one part of the list. Read counts after selection give these values, which scatter widely. Scores sum up all selected molecules that hold the word; the word was not tested alone.

Columns and labels:
Assay in all cases: 6-mer SELEX enrichment z-score vs GST control; IMP3 is the RNA-binding protein IGF2BP3; higher = more enriched by binding
[1] = tested on: IMP3 KH1-4; conditions: construct: KH1-4 (164-579); SELEX round: R4
Protocol: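 SELEX-seq with GST-tagged IMP3 KH1-4 (Pro164-Lys579) and an N40 RNA pool, round 4. 6-mer z-score of sequence-tag enrichment normalised to the corresponding GST SELEX round; RNA k-mers written as DNA (T for U).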

[2] = tested on: IMP3 RRM1-2; conditions: construct: RRM1-2 (1-163); SELEX round: R2
Protocol: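 SELEX-seq with GST-tagged IMP3 RRM1-2 (Met1-Asn163) and an N40 RNA pool, round 2. 6-mer enrichment z-score normalised to GST SELEX. RNA written as DNA (T = U).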

[3] = molecular target: IMP3 full-length (UniProt O00425); conditions: construct: FL IMP3 (1-579); SELEX round: R4
Protocol: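 SELEX-seq with GST-tagged full-length IMP3 and an N40 RNA pool, round 4. Each 6-mer is scored as an enrichment z-score of sequence tags containing it, normalised to the matching GST SELEX round. RNA written as DNA (T = U).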

[4] = tested on: IMP3 KH3-4; conditions: construct: KH3-4 (377-579); SELEX round: R4
Protocol: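 SELEX-seq with GST-tagged IMP3 KH3-4 (Pro377-Lys579) and an N40 RNA pool, round 4. 6-mer z-score of sequence-tag enrichment normalised to the corresponding GST SELEX round; RNA k-mers written as DNA (T for U).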

Chain of UniProt O00425 (O00425 whole entry): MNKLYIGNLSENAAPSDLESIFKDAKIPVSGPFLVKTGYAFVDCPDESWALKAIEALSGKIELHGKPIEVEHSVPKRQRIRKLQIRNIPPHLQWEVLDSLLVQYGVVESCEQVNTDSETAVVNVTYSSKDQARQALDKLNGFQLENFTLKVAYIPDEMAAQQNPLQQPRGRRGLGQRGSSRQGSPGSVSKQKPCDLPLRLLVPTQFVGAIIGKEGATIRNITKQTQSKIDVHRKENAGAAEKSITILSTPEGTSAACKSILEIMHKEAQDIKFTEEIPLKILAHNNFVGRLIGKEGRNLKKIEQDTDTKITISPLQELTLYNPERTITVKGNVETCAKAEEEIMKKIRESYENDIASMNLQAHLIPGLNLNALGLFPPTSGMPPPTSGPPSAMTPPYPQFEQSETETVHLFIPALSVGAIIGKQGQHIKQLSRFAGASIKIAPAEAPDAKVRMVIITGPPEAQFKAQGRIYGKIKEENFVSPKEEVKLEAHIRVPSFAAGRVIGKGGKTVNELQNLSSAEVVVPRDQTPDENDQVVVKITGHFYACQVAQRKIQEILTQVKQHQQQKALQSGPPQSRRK
Chain of IMP3 RRM1-2 (chain, as listed by the source): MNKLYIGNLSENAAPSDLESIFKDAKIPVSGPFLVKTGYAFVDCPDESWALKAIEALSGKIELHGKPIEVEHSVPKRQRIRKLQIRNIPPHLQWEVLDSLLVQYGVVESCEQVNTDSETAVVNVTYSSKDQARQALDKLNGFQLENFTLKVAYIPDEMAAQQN
Chain of IMP3 KH3-4 (chain, as listed by the source): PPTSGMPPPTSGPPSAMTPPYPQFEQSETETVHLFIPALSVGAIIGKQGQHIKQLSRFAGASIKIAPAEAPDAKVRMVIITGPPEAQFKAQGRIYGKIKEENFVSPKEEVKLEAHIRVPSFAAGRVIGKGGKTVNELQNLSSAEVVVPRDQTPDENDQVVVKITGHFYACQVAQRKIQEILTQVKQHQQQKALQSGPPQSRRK
Chain of IMP3 KH1-4 (chain, as listed by the source): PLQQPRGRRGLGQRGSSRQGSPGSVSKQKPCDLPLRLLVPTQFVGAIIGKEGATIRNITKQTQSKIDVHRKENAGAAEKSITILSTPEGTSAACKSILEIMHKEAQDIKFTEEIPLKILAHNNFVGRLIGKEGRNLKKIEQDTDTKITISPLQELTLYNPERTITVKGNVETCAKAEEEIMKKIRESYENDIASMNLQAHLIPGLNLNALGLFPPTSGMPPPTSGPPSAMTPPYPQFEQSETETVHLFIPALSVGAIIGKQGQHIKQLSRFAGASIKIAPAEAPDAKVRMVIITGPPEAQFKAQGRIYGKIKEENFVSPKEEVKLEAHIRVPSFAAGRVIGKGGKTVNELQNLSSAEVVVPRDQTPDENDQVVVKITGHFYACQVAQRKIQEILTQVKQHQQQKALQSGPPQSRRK

Sequence	6-mer SELEX enrichment z-score [1]	6-mer SELEX enrichment z-score [2]	6-mer SELEX enrichment z-score [3]	6-mer SELEX enrichment z-score [4]
TAGATA	0.711	-0.414	-0.141	1.19
GTTGCA	0.193	0.352	0.292	0.086
AATCGA	-1.72	-0.918	-1.33	-1.54
AGGATA	0.986	-0.322	0.059	1.29
CCATTC	0.765	1.04	0.899	0.036
AAAGAT	0.78	-1.65	-0.871	1.73
CTATTC	0.727	0.48	0.16	0.473
ATCAAC	0.639	2.1	1.69	0.197
ATTCTT	0.667	0.541	0.36	0.738
GATACA	1.2	0.12	0.867	1.17
TATATC	1.1	0.305	0.401	1.25
TCACAA	0.731	2.31	1.37	0.235
TATCAC	1.15	1.22	0.982	0.87
GACTAC	-0.342	-0.476	-0.62	-0.422
TGTGCA	1.01	0.142	0.315	0.564
GTACCA	-0.929	-0.146	-0.111	-1.27
TCAAGG	-0.447	0.538	0.304	-0.199
CGATTG	-0.493	-0.377	-0.594	-0.4
AGATGG	0.747	-0.261	0.075	0.892
CGTCGG	0.538	0.476	1.52	0.45
GCAGAC	-0.137	0.141	0.649	-0.34
CCCGAC	-2.65	-1.07	-1.83	-2.87
GCAAAT	0.341	-0.12	0.181	0.583
GAACCC	-1.77	-1.62	-1.65	-2.28
